This note sets out measurements from publication doi:10.1101/2024.01.25.577078 (bioRxiv, 2024).

This experiment concerns the target Hsc70 (human, UniProt P11142). Nature of the experiment: co-sedimentation.

B1: WT DNAJB1 (natural protein)
chain: MGKDYYQTLGLARGASDEEIKRAYRRQALRYHPDKNKEPGAEEKFKEIAEAYDVLSDPRKREIFDRYGEEGLKGSGPSGGSGGGANGTSFSYTFHGDPHAMFAEFFGGRNPFDTFFGQRNGEEGMDIDDPFSGFPMGMGGFTNVNFGRSRSAQEPARKKQ[no letters for about 150 residues]PERIPQTSRTVLEQVLPI
As for B1, the binding result was “binds”.
